The full ranking holds about 16,000 sequences; the median of “Z-score” is about -0.37, and the highest 2% start at about 3.1. The list shows a part of the results.
Test system: RBM10 RRM1-ZnF-RRM2 (GST-tagged construct)
Assay: RNAcompete 7-mer binding Z-score; higher = stronger binding preference
Outline: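 A designed pool of 241 399 RNAs, each up to 41 nt and transcribed from microarray-derived DNA templates, was used at 1.5 nmol with 20 pmol of GST-tagged RBM10 constructs. The mixture, in 1 ml Hepes pH 7.8 buffer with KCl, NaCl, glycerol, DTT, BSA and glutathione Sepharose beads, was held 30 min at 4°C and then washed four times for 2 min at 4°C. Bound RNA was read out by microarray hybridisation, and enrichment of each heptamer motif was scored as a one-sided Z-score over the probes carrying it.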

Sequence | RNAcompete 7-mer binding Z-score
AUUCAGA | -0.162
AGGGCAU | 1.43
UUACGUG | -0.151
UCAUUCG | -0.653
UGGAGGG | 4.26
ACUGUGA | -0.34
UUGUGUU | -0.431
UUUUAUU | -0.646
GGAUAAC | 1.24
AAAUGGU | 2.73
GCUUGAA | -0.526
GUGACAU | 0.181
AAAAGUC | -0.351
GAAGACU | -0.0743
UCGUCCU | -0.748
UACCUGG | -0.446
ACAAAAC | -0.329
UUCCCAG | -0.504
UUCUGUG | -0.49
CCCAGUG | -0.158
GCUCGCC | -0.672
CGACAGU | -0.373
CCGCGAA | -0.734

Sequence | RNAcompete 7-mer binding Z-score
UAUUCCG | -0.65
GCGCUCA | -0.439
GCGUUAA | -0.158
UUAUAGC | -0.639
GUGGGAG | 3.99
GUGAGGA | 2.73
UGGAUAU | 0.876
CAGACAA | -0.402
UUGUAUA | -0.592
CGAAAGC | -0.428
GUGUGAA | 0.829
ACAUCGU | -0.581
UCCGUCA | -0.734
GGCGCCG | -0.00512
GAAUACG | 0.519
UAAAAAU | -0.457
GAGACGU | 0.323
AUCAACG | -0.133
GGUAACG | 2.01
UUCAGAG | -0.315
GCGAGAU | 0.312
UGCCUGA | -0.704
ACUCUGU | -0.956

Sequence | RNAcompete 7-mer binding Z-score
GAAGUGC | 0.461
GUGUCGG | 0.709
CCGCUCU | -0.814
CUCUGGC | -0.785
CCUAGAA | -0.799
CAUAUUA | -0.486
CAUAGGA | 0.756
ACGAGUA | 0.443
GAGGCAU | 1.03
GGAGAUU | 1.07
UGAGGAG | 1.94
GUCUCAA | -0.395
GACUCAA | -0.653
AGGUGGG | 3.44
GACCUAA | -0.901
CCGGGGG | 1.4
GUUAACA | 0.232
GACAUAC | -0.202
UGCCGUC | -0.719
UCCCUGG | -0.391
CUACGGC | -0.417
GUAUCCA | -0.122
CCGCGGG | 0.814

Sequence | RNAcompete 7-mer binding Z-score
GACCUGC | -0.945
GGAGGGA | 3.6
AUUACAU | -0.431
GGAAGUU | 1.2
UUGGGCU | 1.19
CCACCCC | -0.643
ACCACAA | -0.511
AAGAUGC | -0.129
GCACGGA | 0.942
AUUGAUA | -0.216
UAGAGGA | 1.54
UCGCUCG | -0.486
CGCAACA | -0.468
AUCGUUA | -0.621
UUUGAAC | -0.602
ACCUGAC | -0.828
UUCAUCG | -0.777
CUUUUGU | -0.919
GGCGUCA | 0.294
AUCUCGG | -0.57
GCUGUCU | -0.795
CUUUGCU | -0.897
UGGCCAU | -0.18
